# Measurements taken from article PMC6919601, “Identification of Plasmodium dipeptidyl aminopeptidase allosteric inhibitors by high throughput screening” (PLoS ONE, 2019).
# Out of some 110,000 compounds screened, about 230 (0.21%) showed an effect of 50% or more. The list shows a part of the results.
# Target: DPAP1 (Plasmodium falciparum, UniProt Q8IIJ9)
# Experiment: primary screen, percent inhibition; read by cleavage of a fluorogenic dipeptide substrate; higher = more effect of the substance
# Set-up: species or system P. falciparum D10 trophozoite lysates; single well
# 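Also: 30 min substrate incubation versus DMSO and 10 µM JCP410 controls.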
# Chain of DPAP1 (Q8IIJ9 whole entry, looked up): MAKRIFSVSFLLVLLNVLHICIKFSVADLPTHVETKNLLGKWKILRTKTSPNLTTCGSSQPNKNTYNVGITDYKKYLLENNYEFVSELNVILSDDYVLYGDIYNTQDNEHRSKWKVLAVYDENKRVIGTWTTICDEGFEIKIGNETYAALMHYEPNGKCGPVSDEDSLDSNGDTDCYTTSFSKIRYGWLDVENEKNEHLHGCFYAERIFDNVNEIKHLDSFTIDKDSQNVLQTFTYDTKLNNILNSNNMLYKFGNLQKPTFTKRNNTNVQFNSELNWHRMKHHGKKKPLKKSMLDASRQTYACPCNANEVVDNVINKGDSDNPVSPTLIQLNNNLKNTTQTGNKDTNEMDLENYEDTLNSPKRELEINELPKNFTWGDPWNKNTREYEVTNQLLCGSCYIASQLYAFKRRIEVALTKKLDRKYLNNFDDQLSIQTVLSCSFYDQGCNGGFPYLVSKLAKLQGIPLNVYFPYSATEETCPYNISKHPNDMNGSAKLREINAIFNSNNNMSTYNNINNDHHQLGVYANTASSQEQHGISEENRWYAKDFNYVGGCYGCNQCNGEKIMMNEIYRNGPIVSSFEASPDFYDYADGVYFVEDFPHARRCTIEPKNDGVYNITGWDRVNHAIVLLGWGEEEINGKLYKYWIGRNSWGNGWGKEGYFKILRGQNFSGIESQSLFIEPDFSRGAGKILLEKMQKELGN
row,SMILES,% Inhibition @ 10 uM [%]
1,COc1ccc(NC(=O)Cn2cnc3scc(-c4ccc(C)cc4)c3c2=O)cc1,-6.3
2,Cc1ccc(C2Nc3ccccc3C(=O)N2c2ccc(C)cc2)cc1 (stereo not shown),3.05
3,CCOC(=O)N1CCC(NC(=O)c2ccc3snnc3c2)CC1,3.24
4,CCOc1ccc(C(CN)CC(=O)O)cc1OCC (stereo not shown),0.503
5,Cc1cccc(N2C(=O)C3C4c5ccccc5C(C)(c5ccccc54)C3C2=O)c1 (stereo not shown),2.6
6,O=S(=O)(c1ccc2ccccc2c1)N1CCCc2ccccc21,1.83
7,O=C(O)COC(c1ccccc1)c1ccccc1,-1.21
8,CC(=O)Nc1nc(-c2ccccc2)nc(C)c1C(C)=O,-0.0735
9,CN1CCN(C(=O)Cn2ncc3c4ccccc4nc-3c2O)CC1,1.43
10,Cc1oc2ncnc(NCC3CCCO3)c2c1C(=O)O (stereo not shown),-5.76
11,COc1ccc(-n2nc(C(=O)N3CCCCC3)nc2-c2ccccc2)cc1,-3.03
12,Cc1nc2c(c(C)nn2-c2ccccc2)c(C)c1C,-1.24
13,CCN(c1ccccc1)S(=O)(=O)c1ccc(N)cc1,4.49
14,COc1ccc(C2CC(c3cccs3)=NN2C(C)=O)cc1OC (stereo not shown),0.361
15,CCOC(=O)c1c(NC(=O)c2cccc3ccccc23)sc(C)c1C,1.25
16,O=C(c1cc2ccc3cccnc3c2[nH]1)N1CCN(Cc2ccc3c(c2)OCO3)CC1,-5.57
17,Cc1ccc(NC(=O)CCc2ccc(S(=O)(=O)NC(C)c3ccccc3)cc2)cc1 (stereo not shown),-0.318
18,CCN(CC)CCCCCCOc1cccc(C)c1,3.74
19,CN1C(C(=O)N2CCC3(CC2)OCCO3)=CC(c2ccco2)=NS1(=O)=O,2.32
20,O=C(Nc1cccc2ccccc12)c1nc2nc(-c3ccccc3)cc(C(F)(F)F)n2n1,-2.58
21,COc1ccc2sc(N(CCCN(C)C)C(=O)Cc3ccccc3)nc2c1,2.75
22,Cc1nc2nncn2c(NCCC(C)C)c1C,-0.808
23,CCOc1ccc(C2C(C(=O)OC)=CN(C(C)c3ccccc3)C=C2C(=O)OC)cc1 (stereo not shown),1.88
24,COC(=O)c1nnn(CC(=O)NCc2ccc3c(c2)OCO3)c1C(=O)OC,0.351
25,CCOC(=O)N1CCC(NC(=O)CN2N=C(c3ccc(Cl)cc3)CCC2=O)CC1,-4.83

row,SMILES,% Inhibition @ 10 uM [%]
1,COc1ccc(C(=O)NCCc2ccc(OC)c(OC)c2)cc1,1.92
2,O=C(CSc1cn(CC(=O)N2CCCC2)c2ccccc12)NCc1ccccc1Cl,2.46
3,Cc1nc2ccc(S(=O)(=O)N(C)CC(=O)NCCCc3ccccc3)cc2s1,4.33
4,Cc1ccc(N2C(=O)CC(NCCc3cccc(F)c3)C2=O)cc1 (stereo not shown),-0.999
5,COc1ccc(/C=c2/sc3nc(-c4ccc(Cl)cc4)nn3c2=O)c(OC)c1,3.04
6,CC1(C)CC(O)=C/C(=N/c2cc(-c3ccccc3)[nH]n2)C1,-3.53
7,CCOc1ccc(NC(=O)CNS(=O)(=O)c2ccc(Br)cc2)cc1,-5.7
8,Cc1ccc(-n2nc3c(N4CCC(C(=O)NCCCN5CCOCC5)CC4)nnc(C)c3c2C)cc1,5.36
9,Cc1cccc(C(=O)Nc2ccccc2C(=O)Nc2ccccc2)c1,7.09
10,O=C(NCCCCCCNC(=O)c1cc2ccccc2oc1=O)c1cc2ccccc2oc1=O,-3.48
11,O=C(COc1cccc2ccccc12)Nc1ccc(N2CCN(C(=O)c3ccccc3)CC2)cc1,5.66
12,CC(C)Cn1c(=N)n(CCCOc2ccccc2)c2ccccc21,-3.29
13,Cc1cc(C)c(Cn2c3ccccc3c3cnn(CC(=O)N4CCC(C(N)=O)CC4)c(=O)c32)c(C)c1,-5.19
14,Cc1nnc2c(NCc3ccco3)nc3ccccc3n12,-1.08
15,COc1ccc(-c2cc3ncnc(O)c3s2)cc1,2.6
16,CC1CC(=N)C(C(=O)CC2CC(=O)NC(=O)C2)=C(O)C1 (stereo not shown),6.39
17,CC(=O)OCC1OC(n2ccc(=O)[nH]c2=O)C(OC(C)=O)C1OC(C)=O (stereo not shown),0.00178
18,COc1ccc(-c2nc(CS(=O)(=O)CC(=O)NC3CCCC(C)C3C)c(C)o2)cc1 (stereo not shown),-9.55
19,CCOC(=O)c1c(C)[nH]c(C)c1S(=O)(=O)N1CCC(C(=O)N2CCCCCC2)CC1,-7.06
20,COc1ccc(-c2cc(C(=O)Nc3nncs3)c3ccccc3n2)c(OC)c1,-1.17
21,Cc1c(C(=O)N2CCOCC2)oc2c1-c1nn(CC(=O)NCC3CCCO3)cc1CC2 (stereo not shown),0.896
22,COc1ccccc1Cn1c(-c2ccccc2)cn2c3c(=O)n(C)c(=O)n(C)c3nc12,-6.2
23,CC1CCN(S(=O)(=O)c2ccc3c(ccn3CCC(=O)NCCc3cccs3)c2)CC1,6.41
24,COCCn1c(CCC(=O)O)ccc1-c1cccs1,-8.61
25,CCNc1nc(NCC)nc(Oc2ccc(OCC)nn2)n1,-8.96

row,SMILES,% Inhibition @ 10 uM [%]
1,Cc1cc(C)cc(OCC(=O)N(Cc2nc(-c3ccc(Cl)cc3)no2)C(C)C)c1,2.78
2,COc1ccc(S(=O)(=O)N2CCC(C(=O)N3CCOCC3)CC2)cc1OC,-3.74
3,O=c1c2c(nc3n1CCCCC3)sc1c(O)c(Br)ccc12,5.54
4,CCOc1ccc(/C=C(\C#N)C(=O)Nc2nc3ccc(S(C)(=O)=O)cc3s2)cc1OC,-3.28
5,Cc1ccc(NC2=NC(=O)C(CC(=O)Nc3ccc(F)cc3)S2)cc1Cl (stereo not shown),3.17
6,CCN(CC)C(=O)Cn1cc(SCC(=O)N2CC(C)OC(C)C2)c2ccccc21 (stereo not shown),-6.16
7,CN(C(=O)Cn1c(=O)n(Cc2ccccc2)c(=O)c2c3c(sc21)CCC3)C1CCCCC1,-1.29
8,COc1ccc(Br)cc1CN1CCN(C(=O)c2ccc(OC)c(OC)c2)CC1,-0.48
9,COc1cc(C)c(CN2CCN(c3ccc(Cl)cc3)CC2)cc1C,-3.56
10,Cc1cc(NC(=O)CSc2nc3c(cc2C#N)CCCCC3)no1,1.31
11,CS/C(=N\Cc1ccccc1)Nc1[nH]nc(C)c1-c1ccccc1F,0.913
12,CC(C)(C)c1ccccc1OCC(=O)NCC1CCCO1 (stereo not shown),5.51
13,COc1cccc(NC(=O)C2CCCC2)c1,5.26
14,CCCCOc1ccc(C(=O)Nc2ccc(C(C)=O)cc2)cc1,-5.26
15,CN1CCC(N(C)Cc2cccc(Oc3ccc(Cl)cc3)c2)CC1,-4.94
16,CC(C)c1cc(C(C)C)c(S(=O)(=O)NCCCO)c(C(C)C)c1,-5.5
17,CCCCC1CC(C)(/C(C)=N/NC(N)=S)OC1=O (stereo not shown),-3.4
18,CCOc1cc(C(=O)NCc2nc(-c3ccccc3)no2)cc(OCC)c1OCC,2.14
19,CC(C)Cc1cc(-c2ccccc2)c(C#N)c(N)n1,-1.76
20,CCN1CCN(S(=O)(=O)c2cc(Br)cnc2N)CC1,5.48
21,CSc1nc(C)cc(-c2ccccc2)c1C#N,4.09
22,COc1cc(NC(=O)C(c2ccccc2)c2ccccc2)c(OC)cc1NC(=O)C(c1ccccc1)c1ccccc1,-2.22
23,CCOC(=O)c1c(C)c(C(=O)N(CC)C2CCCCC2)c(C)n1C,-5.27
24,Cc1cc2ncn(CC(O)COc3cccc(Cl)c3)c2cc1C (stereo not shown),-0.053
25,Cc1ccc(-n2ncc3c(NC(C)C)ncnc32)cc1,4.61

row,SMILES,% Inhibition @ 10 uM [%]
1,CCOC(=O)c1sc(NC(=O)/C=C/c2ccc(OCC)cc2)nc1C,-5.2
2,N#CCNC(=O)[C@H](CSCc1ccccc1)NC(=O)c1ccc2c(c1)OCO2,-3.49
3,Cc1ccc2cc(NC(=O)c3ccccc3)ccc2n1,0.823
4,CCc1ccc(S(=O)(=O)c2nnn(-c3ccc(C)cc3)c2N)cc1,0.351
5,CCOc1ccccc1NC(=O)CC(C)(C)C,3.81
6,Cc1ccc(C2CC(C(F)(F)F)n3nc(C(=O)N4CCC(C)CC4)cc3N2)cc1 (stereo not shown),4.86
7,NS(=O)(=O)c1ccc(CCNC(=O)CCCNS(=O)(=O)c2cccs2)cc1,-0.503
8,Cc1cccc(CN2CCN(c3ccc(Cl)cc3)CC2)c1,-5.57
9,Clc1ccc(OCCCn2ccnc2)c2ccccc12,2.22
10,Cc1ccc(C)n1-c1cc(C(=O)O)ccc1Cl,-4.11
11,Cc1ccc(CS(=O)Cc2ccc(C(=O)O)o2)cc1 (stereo not shown),-3.78
12,CCCCCC(=O)CCn1c(=O)sc2ccccc21,-4.95
13,CC1CC(C)CN(C(=O)CCc2nnc3ccc(N4CCOCC4)nn23)C1 (stereo not shown),-6.16
14,CC(=O)c1ccc(N2CCN(Cc3ccc(C(F)(F)F)cc3)CC2)cc1,1.83
15,COc1ccccc1CNC(=O)c1nnn(Cc2ccc(SC)cc2)c1N,1.26
16,Cc1ccc(-c2cc(C(=O)NC3CC3)c3ccccc3n2)cc1C,1.16
17,C=CCn1c(SCc2ccc(C(=O)NCCO)cc2)nc2sc3c(c2c1=O)CCCC3,2.7
18,CCN(CC(O)c1cccc(O)c1)c1ncnc2c1cnn2C (stereo not shown),0.426
19,COCCCNC(=O)Cn1c(=O)n(Cc2ccccc2)c(=O)c2c3c(sc21)CCC3,-0.668
20,CC1CC(C)CN(C(=O)C2CCCN2c2nnc(N3CCCC3=O)s2)C1 (stereo not shown),0.623
21,O=C(CSc1nc(-c2cccc(Cl)c2)[nH]c1-c1ccccc1)NCC1CCCO1 (stereo not shown),-1.58
22,COc1ccc(S(=O)(=O)N(CC(=O)Nc2ccc3c(c2)OCO3)c2ccccc2)cc1,-0.641
23,CN(Cc1ccccc1)C(=O)c1cnc2ccc(S(=O)(=O)N3CCOCC3)cc2c1O,1.76
24,CCc1ccc(/C(O)=C/C=N/c2ccc(NC(C)=O)cc2)cc1,0.722
25,Cc1ccc(C(=O)NCC2CCCO2)cc1C (stereo not shown),-5.13
